# Measurements from PubChem BioAssay (NCATS).
# Where “and” joins values, the source holds several entries; their conditions need not be identical. Equal values may be shown once. Inconclusive results, whose numbers are uncertain, are shown with a selection of clear calls. Potencies beside an inconclusive call are fits to weak or partial responses and may not hold up. Calls of active or inactive are those of the source. Calls come from the whole dose curve; as a rule, active = well fitted inhibition curve with a large enough effect; inconclusive = small, poorly fitted or top-dose-only effect; inactive = flat fitted curve, though single readings scatter.
# Biological target: Aldehyde dehydrogenase, mitochondrial (Homo sapiens) (UniProt P05091)
# Assay: qHTS for Inhibitors of the Aldehyde Dehydrogenase Family (ALDH2) Primary screen (AID 2061308); note: nearly all actives have a fitted effect of over 55% in size
# Conditions: ALDH2 enzyme inhibition qHTS, 1536-well; series mostly up to 56 µM
# Potency is the fitted concentration of half-maximal effect; tags give direction and shape of the fitted curve.
row,SMILES,Potency
1,COc1cccc(Nc2ccc(N3CCCCC3)cc2)c1OC,"inconclusive: 2.82 µM [inhibitor, full curve, poor fit]"
2,CC(C)(C)c1ccc(CNC(=S)NCc2ccc(NS(C)(=O)=O)c(F)c2)cc1,inactive
3,CCc1c[nH]c2ncnc(N3CC[C@](N)(CNC(=O)c4ccc(F)cc4F)C3)c12,"inconclusive: 39.8 µM [inhibitor, single point]"
4,COC(=O)C1=CO[C@@H](O[C@@H]2O[C@H](CO)[C@@H](O)[C@H](O)[C@H]2O)[C@@H]2C(CO)=CC[C@H]12,inactive
5,Cc1ccc(S(=O)(=O)Nc2ccccc2C(=O)Nc2nccs2)cc1,inactive
6,NC(=O)C1CCN(c2nc(-c3cccc4sc5ccccc5c34)cs2)CC1,"inconclusive: 5.01 µM [inhibitor, full curve]"
7,C/C=C1/[C@H](O[C@@H]2O[C@H](CO)[C@@H](O)[C@H](O)[C@H]2O)OC=C(C(=O)OC)[C@H]1CC(=O)O[C@@H]1O[C@H](CO)[C@@H](O)[C@H](O)[C@H]1O,"inconclusive: 0.0708 µM [inhibitor, full curve, poor fit]"
8,O=C(/C=C/c1ccccc1)OC[C@H]1O[C@@H](OC(=O)c2cc(O)c(O)c(O)c2)[C@H](O)[C@@H](O)[C@@H]1O,"inconclusive: 17.8 µM [inhibitor, single point]"
9,COc1ccc(OC)c(C2C(C#N)=C(N)Oc3n[nH]c(-c4ccc5ccccc5c4)c32)c1 (stereo not given),"inconclusive: 35.5 µM [inhibitor, single point]"
10,Oc1ccc(CNc2cc(Br)ccn2)c2cccnc12,"inconclusive: 20 µM [inhibitor, partial curve, poor fit]"
11,Cc1ccnc(NC(=S)N2CCc3cc(C(F)(F)F)ccc3C2)c1,"inconclusive: 3.98 µM [inhibitor, partial curve, poor fit]"
12,Cc1ccc(C2Nc3cccc4cccc(c34)N2)s1,inactive
13,C/C=C1/CC2C(=O)Nc3cc(O)c(OC)cc3C(=O)N2C1 (stereo not given),inactive
14,O=C1C(Cl)=C(N2CCOCC2)C(=O)N1c1ccc(Cl)c(Cl)c1,"inconclusive: 0.126 µM [inhibitor, full curve, poor fit]"
15,Cc1csc(CNc2ncnc3ccc(-c4ccc(CO)o4)cc23)n1,"inconclusive: 35.5 µM [inhibitor, single point]"
16,O=[N+]([O-])c1ccccc1NCc1ccc(O)c2ncccc12,"inconclusive: 1.58 µM [inhibitor, full curve, poor fit]"
17,COc1cc(/C=C/C(=O)NCCn2c(C(F)(F)F)cc3ccccc32)cc(OC)c1OC,"inconclusive: 11.2 µM [inhibitor, partial curve, poor fit]"
18,COc1ccnc(CS(=O)c2nc3cc(OC(F)F)ccc3[nH]2)c1OC (stereo not given),"inconclusive: 15.8 µM [inhibitor, partial curve, poor fit]"
19,CO[C@@H](Cc1ccc(OCCc2nc(-c3ccccc3)oc2C)c2ccsc12)C(=O)O,"inconclusive: 5.62 µM [inhibitor, partial curve]"
20,CC(C)(C)OC(=O)N1CCN(c2ccc(NCc3ncc(-c4ccc(C#N)cc4)o3)cc2)CC1,active: 1.12 µM

row,SMILES,Potency
1,O=C(O)c1cccc(-c2noc(-c3ccc(Cl)cc3)n2)c1,inactive
2,CC(C)CC(=O)n1cc(C(N)=O)c(=O)cc1C(O)c1ccccc1 (stereo not given),"inconclusive: 31.6 µM [inhibitor, single point]"
3,Cc1ccc(Cc2c(C)nc3nc(SCC(=O)NCCN4CCNCC4)nn3c2C)cc1,inactive
4,Oc1ccc(CNc2ccc(C(F)(F)F)cc2Cl)c2cccnc12,"inconclusive: 20 µM [inhibitor, partial curve, poor fit]"
5,Oc1cc(NCCN2CCOCC2)cc2cccnc12,"inconclusive: 14.1 µM [inhibitor, partial curve, poor fit]"
6,Oc1cccc2cc(Nc3ccccc3)cnc12,inactive
7,N#Cc1ccc(-c2ccc(-c3nc4ccccc4c(=O)[nH]3)o2)cc1,"inconclusive: 17.8 µM [inhibitor, partial curve, poor fit]"
8,Oc1cc(NCc2ccccc2)cc2cccnc12,"inconclusive: 31.6 µM [inhibitor, single point]"
9,Cc1ccc(NS(=O)(=O)c2cc3c(cc2N2CCCC2)NC(=O)CC3)cc1C,"inconclusive: 11.2 µM [inhibitor, partial curve, poor fit]"
10,N#Cc1ccc(S(=O)(=O)Nc2cnccc2C(=O)Nc2nc(-c3ccccc3)cs2)cc1,inactive
11,Cc1ccnc(NC(=S)N2CCN(c3ccccc3C(F)(F)F)CC2)c1,"inconclusive: 3.55 µM [inhibitor, single point] and inconclusive: 3.98 µM [inhibitor, partial curve, poor fit]"
12,Cc1cc(C)nc(NC(=S)N2CCN(c3ccc(-c4ccccc4)cc3)CC2)c1,"inconclusive: 35.5 µM [inhibitor, single point]"
13,Cc1ccc(NC(=O)CN2C(=O)N/C(=C\c3cccn3-c3cccc(C(=O)O)c3)C2=O)cc1,"inconclusive: 28.2 µM [inhibitor, partial curve, poor fit]"
14,Cc1ccnc(NC(=S)N2CCN(c3ccc(Cl)cc3)CC2)c1,"inconclusive: 3.16 µM [inhibitor, single point]"
15,O=C(O)c1cccc(-c2noc(-c3ccccc3Cl)n2)c1,inactive
16,O=C(O)c1ccc(Cc2c(-c3cccc(-c4ccccc4)c3)[nH]n(-c3nc(C(=O)O)cs3)c2=O)cc1,inactive
17,Cc1ccnc(NC(=S)N2CCN(c3ccc(C(F)(F)F)cc3[N+](=O)[O-])CC2)c1,"inconclusive: 3.16 µM [inhibitor, single point]"
18,O=C(OCC#CCSc1nnc(-c2ccc(F)cc2)o1)c1ccc(F)cc1,inactive
19,C[C@@H]1O[C@@H](O[C@H]2[C@H](O[C@H]3[C@H](O[C@H]4CC[C@@]5(C)C(CC[C@]6(C)C5CC=C5[C@@H]7CC(C)(C(=O)O)C[C@@H](O)[C@]7(C)CC[C@]56C)[C@@]4(C)CO)O[C@H](C(=O)O)[C@@H](O)[C@@H]3O)O[C@H](CO)[C@H](O)[C@@H]2O)[C@H](O)[C@H](O)[C@H]1O (stereo not given in full),inactive
20,Cc1nc(NCc2ccccc2)c2nc(-c3ccccc3)n(CCCN(C)C)c2n1,inactive
